What all share (assay): co-IP; HEK293T cells co-transfected; lysate on anti-DYKDDDDK magnetic beads, eluted with FLAG peptide, blots with anti-FLAG, anti-HA, anti-Myc; 30mM HEPES pH 7.9, 400mM NaCl, 10% glycerol, 0.05% Tween-20, Benzonase; with or without co-expressed HA-Setdb1
In test [1] the target is T1, FLAG-Atf7IP (human) (UniProt Q6VMQ6).
T1 sequence: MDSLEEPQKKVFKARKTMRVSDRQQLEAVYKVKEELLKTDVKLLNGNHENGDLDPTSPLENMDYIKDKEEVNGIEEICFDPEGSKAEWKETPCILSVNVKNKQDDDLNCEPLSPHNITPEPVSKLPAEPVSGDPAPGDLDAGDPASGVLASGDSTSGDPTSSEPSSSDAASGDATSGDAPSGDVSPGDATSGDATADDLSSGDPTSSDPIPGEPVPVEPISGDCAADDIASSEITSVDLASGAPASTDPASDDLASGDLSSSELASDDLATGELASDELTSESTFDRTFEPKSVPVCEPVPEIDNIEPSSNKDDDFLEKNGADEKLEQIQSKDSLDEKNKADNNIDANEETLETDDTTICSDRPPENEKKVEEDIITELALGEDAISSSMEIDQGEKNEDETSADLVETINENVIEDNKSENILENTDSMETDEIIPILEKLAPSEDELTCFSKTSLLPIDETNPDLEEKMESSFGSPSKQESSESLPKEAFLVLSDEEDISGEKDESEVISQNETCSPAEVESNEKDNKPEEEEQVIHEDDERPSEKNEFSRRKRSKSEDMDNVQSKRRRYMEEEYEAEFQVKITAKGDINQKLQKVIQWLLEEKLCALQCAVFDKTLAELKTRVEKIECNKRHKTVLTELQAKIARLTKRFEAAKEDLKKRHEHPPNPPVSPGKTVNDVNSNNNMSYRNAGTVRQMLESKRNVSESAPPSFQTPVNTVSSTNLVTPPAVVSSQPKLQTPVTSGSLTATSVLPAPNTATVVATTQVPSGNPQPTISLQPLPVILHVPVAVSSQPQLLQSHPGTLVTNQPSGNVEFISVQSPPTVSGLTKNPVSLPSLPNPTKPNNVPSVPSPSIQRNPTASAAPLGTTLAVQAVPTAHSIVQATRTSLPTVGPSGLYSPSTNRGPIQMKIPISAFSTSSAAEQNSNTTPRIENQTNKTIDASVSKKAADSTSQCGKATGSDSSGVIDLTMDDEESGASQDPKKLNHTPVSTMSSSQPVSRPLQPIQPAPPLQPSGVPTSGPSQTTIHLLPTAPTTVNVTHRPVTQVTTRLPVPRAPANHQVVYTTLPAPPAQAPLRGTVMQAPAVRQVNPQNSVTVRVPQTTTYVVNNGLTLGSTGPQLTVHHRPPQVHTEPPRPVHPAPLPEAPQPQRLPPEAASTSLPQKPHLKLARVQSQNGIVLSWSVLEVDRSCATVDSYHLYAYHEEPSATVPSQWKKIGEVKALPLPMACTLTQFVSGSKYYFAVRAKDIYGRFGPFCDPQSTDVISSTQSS

The target of test [2] is T2, Flag-Atf7IP(1–448) (human) (UniProt Q6VMQ6).
T2 sequence: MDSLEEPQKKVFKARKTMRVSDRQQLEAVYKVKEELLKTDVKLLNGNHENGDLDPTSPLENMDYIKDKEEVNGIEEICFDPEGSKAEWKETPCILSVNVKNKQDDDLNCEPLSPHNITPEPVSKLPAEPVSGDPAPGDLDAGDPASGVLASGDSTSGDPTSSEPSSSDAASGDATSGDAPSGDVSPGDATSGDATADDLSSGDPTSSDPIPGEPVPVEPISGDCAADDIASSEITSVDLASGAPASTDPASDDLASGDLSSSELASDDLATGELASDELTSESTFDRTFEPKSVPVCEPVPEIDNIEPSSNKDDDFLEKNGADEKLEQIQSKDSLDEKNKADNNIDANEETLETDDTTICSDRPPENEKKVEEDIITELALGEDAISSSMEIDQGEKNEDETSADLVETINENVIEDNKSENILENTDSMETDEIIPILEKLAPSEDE

Test [3] deals with T3, Flag-Atf7IP(422–841) (human) (UniProt Q6VMQ6).
T3 sequence: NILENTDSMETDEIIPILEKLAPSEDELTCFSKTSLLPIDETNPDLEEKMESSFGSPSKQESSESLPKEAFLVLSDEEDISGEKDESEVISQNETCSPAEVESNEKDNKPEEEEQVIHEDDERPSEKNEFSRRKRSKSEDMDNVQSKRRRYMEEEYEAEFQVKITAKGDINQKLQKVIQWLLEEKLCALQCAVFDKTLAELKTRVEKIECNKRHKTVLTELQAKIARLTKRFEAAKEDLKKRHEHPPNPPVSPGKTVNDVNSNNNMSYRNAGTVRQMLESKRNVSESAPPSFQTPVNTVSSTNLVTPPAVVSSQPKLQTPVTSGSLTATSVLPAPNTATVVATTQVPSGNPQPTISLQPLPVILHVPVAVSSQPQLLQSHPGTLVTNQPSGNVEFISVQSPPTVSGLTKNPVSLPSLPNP

Consider one molecule from publication doi:10.1101/2024.12.23.630145, “Setdb1 and Atf7IP form a hetero-trimeric complex that blocks Setdb1 nuclear export” (bioRxiv, 2024).

Results are given in words; binding and its absence hold for the method and conditions named. In cells and extracts the contact can be indirect. Some results given as binding are weak or reduced against the parent protein; the word gives no strength. Where a sequence is shown, tags or fusion partners need not be part of it.

B1: Myc-Atf7IP (protein, UniProt Q6VMQ6 1-1270)
chain: T1 sequence
For the molecule B1, the binding entry in test [1] is on record as “binds”; in test [2], “no binding”; in test [3], “binds”.
